The list shows a part of the results. Shown are side measurements of this screen, not its main read-out; they come without a call. Compounds called inactive in the main read-out are mostly missing here.
Experiment: up-regulation of insulin promoter-GFP reporter – imaging, high-content screening, mouse beta cells (AID 1625);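 note: total cells summed across four imaged fields per well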
Settings: MIN6 insulin promoter-GFP reporter, measured here: cytotoxicity, nuclei count, at 5 µM

Structure (SMILES)	cell count
CN(C)c1nc(=Nc2cccc(Cl)c2)ss1	471 cells
CCOC(=O)/C(=C\C=C1/Sc2cc(OCC)c(OCC)cc2N1CC)C(C)=O	1100 cells
O=C(O)CCCCCN1C(=O)/C(=C\c2ccc(-c3ccc(Cl)cc3)o2)SC1=S	1080 cells
Cc1ccc(C)c(N2CCN(C(c3ccc(N(C)C)cc3)c3nnnn3C(C)(C)C)CC2)c1 (stereo not drawn)	319 cells
Cc1cc(C)n(C(=O)CCC2COc3ccccc3O2)n1 (stereo not drawn)	1300 cells
CC(=O)c1c(N2CCOCC2)[nH]c(-c2ccccc2)nc1=S	1290 cells
CC(C)NC(=O)N1CCN(c2ccncc2S(=O)(=O)N2CCOCC2)CC1	1310 cells
COC(=O)c1cc(Cl)c(N)cc1OC	403 cells
Oc1ccc(Nc2nc(N3CCCC3)c3ccccc3n2)cc1	365 cells
CN(C)S(=O)(=O)Oc1cccc(C(=O)Nc2ccc([N+](=O)[O-])cc2)c1	938 cells
CCN(CC(=O)NCCc1ccccc1)S(=O)(=O)c1ccc(C)cc1	411 cells
CCN1CCS/C1=C\C=C\C1=[N+](CC)CCS1	383 cells
O=C(NCCN1CCCC1)C1(S(=O)(=O)c2ccc(Cl)cc2)CC1	1570 cells
CC(C)/C=C1\CC/C(=C\c2ccc(N(C)C)cc2)C1=O	1360 cells
O=C(Cc1nc(-c2ccc([N+](=O)[O-])cc2)cs1)Nc1ccccc1	1240 cells
O=C(Nc1ccccc1Cl)/C(Cl)=C(\Cl)S(=O)c1ccccc1 (stereo not drawn)	365 cells
COc1cc(/C=N/Nc2nc(Nc3ccc(C)cc3)nc(-n3nc(C)cc3C)n2)cc(OC)c1OC	487 cells
CCCC1CC(C)(c2csc(Nc3ccc(OCC)cc3)n2)OC1=O (stereo not drawn)	432 cells
O=C(Nc1nnc(-c2ccc3c(c2)CCCC3)o1)C1COc2ccccc2O1 (stereo not drawn)	356 cells
CCN1C(=O)/C(=C/c2ccc(N3CCCC3)cc2)NC1=S	1030 cells
CCOC(=O)[C@@H]1C(c2c(OC)cc(OC)cc2OC)=NO[C@@H]1C(=O)OCC	412 cells
C/C(CC(=O)Nc1c(C)cc(C)cc1C)=N\NC(=O)OC(C)(C)C	327 cells
CCCC(=O)N1c2ccccc2C(=C2SC(C(=O)OC)=C(C(=O)OC)S2)C(=S)C1(C)C	479 cells
COc1ccccc1N1CCN(C(c2ccccc2)c2nnnn2CCc2ccccc2)CC1 (stereo not drawn)	466 cells
CCN(CC)Cc1cc2[nH]c3c4ccc(Cl)cc4ncc3c2cc1OC	403 cells
C(#Cc1ccccc1)C[N+]1(CC#Cc2cccc3ccccc23)CCCC1	194 cells
CCCCCCOC(=O)C[N+](C)(C)CCOC1CC2CCC1(C)C2(C)C (stereo not drawn)	427 cells

Structure (SMILES)	cell count
COc1cc(CNCc2ccccn2)ccc1OCc1c(Cl)cccc1Cl	488 cells
CSc1nc2ccccc2n1Cc1cccc([N+](=O)[O-])c1	463 cells
COC(CNC(=O)c1ccc(Cn2c(=S)[nH]c3cc4c(cc3c2=O)OCO4)cc1)OC	1110 cells
CCCCCc1ccc(OCCCC[n+]2ccc(C)cc2)c(CCCCC)c1	434 cells
Cc1cc(C)n2nc(SCC(=O)c3cc(C)n(-c4cc(C)on4)c3C)nc2n1	401 cells
C/C(=N\NC(=O)c1ccco1)c1ccc(NC(=O)c2ccccc2)cc1	489 cells
CCCCN1C(=O)/C(=C/C=C2\SCCN2C)SC1=S	1340 cells
CCc1ccccc1NC(=O)CN(C)C(=O)Cn1ncc(Cl)c(Cl)c1=O	434 cells
CCC(C)(C(=O)NC1CCCC1)N(C(=O)CNC(C)=O)c1ccccc1 (stereo not drawn)	1250 cells
c1ccc(-c2csc3ncnc(NCCCN4CCOCC4)c23)cc1	463 cells
CCOC(=O)c1cnc(-n2nc(C)cc2C)nc1NC1CCCCC1	420 cells
CCCCCc1cc(=O)oc2c(C(CCN3CCCC(C)C3)c3ccc4c(c3)OCO4)c(OC)cc(OC)c12 (stereo not drawn)	288 cells
CN(C)C(=O)C1C2NC(=S)N(c3cccc(Cl)c3)C1(C)Oc1ccc(Cl)cc12 (stereo not drawn)	1430 cells
O=C(Nc1ccc([N+](=O)[O-])cc1)Nc1ccc(OC(F)F)c(Cl)c1	338 cells
O=C(/C(=C/c1ccc(Cl)cc1)c1nc2ccccc2[nH]1)c1cccs1	442 cells
N=c1c2c(n(Cc3ccc(Cl)c(Cl)c3)c3c1CCC3)CCCC2	319 cells
CCOC(=O)c1c(CSC(=N)N)n(-c2ccc(Br)cc2)c2cc(Br)c(OC(C)=O)cc12	315 cells
C[n+]1c2n(c3ccccc31)N=C(c1cc(C(C)(C)C)c(O)c(C(C)(C)C)c1)CS2	203 cells
C=CCNC(=O)/C(=C\c1ccc(Br)cc1)NC(=O)c1ccccc1OC	870 cells
C=CCn1c(C)cc(C(=O)Cn2ncc(Cl)c(Cl)c2=O)c1C	393 cells
CCOC(=O)c1ccc(NC(=O)Cn2cnc3cc(C)c(C)cc32)cc1	381 cells
COc1cccc(C(=O)Nc2ccccc2C(=O)N2CCCC2)c1	781 cells
O=C(c1cc2ccccc2oc1=O)N(c1ccc(Cl)cc1)C1C=CS(=O)(=O)C1 (stereo not drawn)	439 cells
O=C(N/N=C/c1ccco1)c1cc(C2CC2)nc2ccccc12	465 cells
Cc1ccc(S(=O)(=O)C(C#N)c2nc3ccccc3nc2N2CCC(C)CC2)cc1 (stereo not drawn)	1190 cells
O=C1S/C(=C\c2ccc(N3CCOCC3)o2)C(=O)N1c1ccccc1	1260 cells

Reference: PubChem BioAssay AID1625 (Sanford-Burnham Center for Chemical Genomics, 2009)
